# Results as given in PubChem BioAssay (NCI).
#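 Results reflect a 48-hour exposure of cells in 96-well plates to compound at five concentrations. GI50: concentration for 50% inhibition of growth. Definition used: TGI = concentration required for complete inhibition of growth.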 Numbered stars: 1 amine (or outer) side, 2 acyl side, 3 side chain; on linkers, the order of the positions; unused ones are H or OH. Bridge positions count the residues as written; N and C are the ends. Square brackets hold non-standard residues; d marks the D form. Peptide text beside a SMILES is read from it. I, II: the chains in the order shown. ξ: configuration not given here. Actinocin(1to9) = Cc1c2oc3c(C)ccc(C(=O)[*:2])c3nc-2c(C(=O)[*:1])c(N)c1=O; Pro(4-oxo) = O=C1CN[C@H](C(=O)O)C1; Thr(3ξ) = CC(O)[C@H](N)C(=O)O; NMeV = CN[C@H](C(=O)O)C(C)C; Sar = CNCC(=O)O
# Test system: NCI-H322M lung
# Experiment: NCI anticancer screen, dose series, 48 h
Structure (SMILES),GI50 [µM],TGI [µM]
CC(=O)Oc1ccccc1C(=O)Oc1ccc(C(=O)/C=C/c2ccncc2)cc1,19.4,79.2
O=C(c1ccccc1)c1ccc2nc(-c3ccccc3Br)[nH]c2c1,5.5,18.2
COc1ccc(CCN2C(=O)/C(=C/c3csc(C#N)n3)SC2=S)cc1OC,89.1,> 100
"Cc1c2oc3c(C)ccc(C(=O)N[C@@H]4C(=O)N[C@H](C(C)C)C(=O)N5CCC[C@H]5C(=O)N(C)CC(=O)N(C)[C@@H](C(C)C)C(=O)OC4C)c3nc-2c(C(=O)N[C@@H]2C(=O)N[C@H](C(C)C)C(=O)N3CC(=O)C[C@H]3C(=O)N(C)CC(=O)N(C)[C@@H](C(C)C)C(=O)OC2C)c(N)c1=O (stereo not given in full) (I: [Thr(3ξ)][dV][Pro(4-oxo)][Sar][NMeV] / II: [Thr(3ξ)][dV]P[Sar][NMeV]; ester I:1-I:C, II:1-II:C; linker I:N-II:N via Actinocin(1to9))",< 0.01,< 0.018
Nc1ccc(-c2ccc3ncnc(N4CCc5cc(F)c(Cl)cc54)c3c2)cn1,1.35,8.69
